Results: paper PMC6212790
The other results are listed elsewhere or left out. At the low end of the ranking the order means little.

biological target: T1, GST-Rok-C97-191 (UniProt O34857); experiment: protein binding microarray; details: Rok is a gene silencer of Bacillus subtilis; high values mean tight binding; most listed sequences are background and not binding sites; double strand, one strand shown;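 further: rank score from −0.5 (least bound) to 0.5 (best bound)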
T1 sequence: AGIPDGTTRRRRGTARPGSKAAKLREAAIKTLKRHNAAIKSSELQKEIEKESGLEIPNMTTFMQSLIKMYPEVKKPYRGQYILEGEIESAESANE

Sequence | binding signal
GAGGTCGC | -0.134 E-score
CCTCAAAG | -0.109 E-score
ATACGAAT | 0.17 E-score
CTGGTCAC | -0.286 E-score
AGCGCGTG | -0.0766 E-score
TGAGCCCA | -0.168 E-score
CCTATATC | 0.0424 E-score
TCAGTTAA | 0.249 E-score
CATCTATC | 0.201 E-score
CTGGCCAG | -0.116 E-score
ATCGATGC | -0.00344 E-score
GATTTCGA | 0.12 E-score
CGGACGCC | -0.19 E-score
ATTTTCAG | 0.139 E-score
TCATAAAA | 0.247 E-score
CACGCCAC | -0.134 E-score
ACAGTCGT | -0.144 E-score
CTGTTCAC | -0.0918 E-score
ACGACAAA | -0.00941 E-score
GAGCGAAA | -0.0321 E-score
CCTCGTAC | -0.195 E-score
GATGACAA | 0.0961 E-score
GATATCTA | 0.349 E-score
CTACGGAC | 0.00996 E-score
CCATGTAA | 0.197 E-score

Sequence | binding signal
CCAAAGGG | -0.296 E-score
CGTCAACC | -0.182 E-score
GCATGGGC | -0.148 E-score
AGATATAC | 0.221 E-score
AACACTGG | -0.223 E-score
TATAGGCA | 0.122 E-score
AGATTATG | 0.0174 E-score
CCTGGGAC | -0.234 E-score
GGCAGATA | -0.104 E-score
ACTAAGCG | -0.208 E-score
ATAAAACG | 0.145 E-score
GGTGCGTA | -0.145 E-score
ACATGCAC | -0.00337 E-score
ATTCTTCG | 0.121 E-score
CTCGACGA | -0.162 E-score
GGCCTAAA | 0.0804 E-score
ATCAAATA | 0.253 E-score
TCCCGCCA | -0.174 E-score
CTCGAAGC | -0.3 E-score
ATTGATTC | 0.0769 E-score
CGAAGTAG | 0.178 E-score
ATACTCGA | 0.0581 E-score
GAGGCCGA | -0.261 E-score
ATATAAAC | 0.33 E-score
AGACAGCA | -0.162 E-score

Sequence | binding signal
AATGCATG | -0.0091 E-score
AATCTGGG | -0.0558 E-score
ATCGAAGA | -0.0976 E-score
AGATCAGC | -0.131 E-score
CTAAGAAC | -0.119 E-score
ATCTTCGC | 0.0663 E-score
TATGACGA | 0.0683 E-score
AATGTATC | 0.187 E-score
CTAATGTC | -0.0106 E-score
AGGCGGGG | -0.355 E-score
AAGTTCGA | 0.212 E-score
GCATAGCC | 0.0124 E-score
AGACATGA | -0.06 E-score
AGTCGGTA | 0.234 E-score
AGAGCCGC | -0.24 E-score
AGGGCAGC | -0.373 E-score
CAGCAGCC | -0.253 E-score
CAAGTACC | 0.181 E-score
CTCGCTAA | -0.0252 E-score
AAGATTGT | 0.117 E-score
ATCTAATC | 0.295 E-score
AGAAACAC | 0.0474 E-score
CTCCTAGA | 0.0946 E-score
CAACTTGA | 0.0158 E-score
AAATAAAG | 0.139 E-score

Sequence | binding signal
CGTCTGCC | -0.352 E-score
GCATCAGC | 0.00667 E-score
GTGCTTAA | 0.0496 E-score
ATAGCAAA | 0.198 E-score
CACATACC | 0.242 E-score
GCCAATTA | 0.0747 E-score
GCTAATAC | 0.28 E-score
ACGGTATG | 0.136 E-score
GGTATTTA | 0.342 E-score
CCTGGCTC | -0.282 E-score
TAAAACTA | 0.334 E-score
GAGTTCCC | -0.111 E-score
GGCTTCAC | -0.253 E-score
AAGCTCGT | -0.196 E-score
CATCCCCG | -0.113 E-score
ATATATCG | 0.366 E-score
CGATTCTC | 0.0356 E-score
CTGGCACC | -0.215 E-score
GGCAGGAA | 0.121 E-score
CCCGAGGC | -0.134 E-score
AACAACTC | 0.0751 E-score
AACACGAA | -0.00671 E-score
CCATTCGC | -0.108 E-score
GATTTCAA | 0.0221 E-score
CCACCTGA | -0.268 E-score

Sequence | binding signal
AGTTTAAT | 0.112 E-score
AAAGATTG | 0.105 E-score
GAGACAAC | -0.0419 E-score
CACACGGC | -0.207 E-score
CTAAGCAC | 0.0468 E-score
AAATGGTA | 0.304 E-score
AGAACTAT | 0.268 E-score
AATTACGC | 0.134 E-score
ACCTCAAT | 0.0517 E-score
TAACGGCA | -0.0744 E-score
CTGCTTGA | -0.175 E-score
ATTCACAC | -0.000693 E-score
ATGCTTGC | -0.196 E-score
CTCTAACC | -0.1 E-score
AACTTATA | 0.345 E-score
ACGCTTGA | 0.00298 E-score
CCAATGGG | -0.0528 E-score
CCGGTGCC | -0.203 E-score
CATCGACC | -0.122 E-score
GGGTATAA | 0.284 E-score
AAAAAACC | 0.127 E-score
ATAGCAAC | 0.227 E-score
AGCGCGGA | -0.153 E-score
CCCTTGCG | -0.329 E-score
AATATAAG | 0.26 E-score

Sequence | binding signal
CTCACGCC | -0.239 E-score
ATTTCAGA | 0.184 E-score
AATTGAGT | 0.0803 E-score
ACTTTACA | 0.138 E-score
CCCTCATC | -0.104 E-score
CTAGATAC | 0.204 E-score
AGGTCGTG | -0.157 E-score
CACCGCAC | -0.164 E-score
AGACTTGC | -0.0835 E-score
AGAGTCTG | -0.116 E-score
TGGGTACA | -0.0341 E-score
ATAGGATG | 0.153 E-score
TAATCAGA | -0.0111 E-score
CGTTACAG | 0.237 E-score
CTTTAAGA | -0.0814 E-score
GACCCACC | -0.13 E-score
ACGGTGAG | -0.188 E-score
GAGGCCCA | -0.341 E-score
CGCCAGGC | -0.152 E-score
ACTCACGG | 0.0645 E-score
AACGTACG | 0.175 E-score
CGCCATGA | -0.312 E-score
GAAAACCA | -0.143 E-score
AGCATGAG | 0.0613 E-score
ATAGACAT | 0.0544 E-score

Sequence | binding signal
ATCGTGCA | -0.0632 E-score
CCTTATTC | -0.0117 E-score
CAAACCAA | 0.0242 E-score
CACCTGGA | -0.0965 E-score
CCGGGTCG | -0.287 E-score
GGTTTTAA | -0.0897 E-score
CTTAGCGA | 0.0126 E-score
AACGATAA | 0.194 E-score
TCAAACCA | -0.163 E-score
GGCGCATA | -0.0492 E-score
AAGGCACG | -0.127 E-score
AGAAACAG | 0.171 E-score
TCCGCCGA | -0.185 E-score
ACCCAGCA | -0.195 E-score
ATTCAGAA | -0.017 E-score
CGATCGGA | 0.18 E-score
ATCGCCCC | -0.299 E-score
ACAACCAC | -0.126 E-score
GCACGTAC | -0.0143 E-score
AGTAGTGC | 0.12 E-score
ACTAATTA | 0.444 E-score
GAGAACGC | -0.129 E-score
